PMC4336329 (PLoS ONE, 2015)
Hit rate of the full screen: of about 310,000 compounds, about 2,200 (0.71%) showed an effect of 50% or more. Effects have a minus sign here. The list shows a part of the results.

Each compound was assayed against human ether-à-go-go-related gene (hERG) potassium channel (human, UniProt Q12809) (assay: primary screen, population patch clamp on CHO cells stably expressing hERG).
Sequence of human ether-à-go-go-related gene (hERG) potassium channel (Q12809 whole entry, looked up): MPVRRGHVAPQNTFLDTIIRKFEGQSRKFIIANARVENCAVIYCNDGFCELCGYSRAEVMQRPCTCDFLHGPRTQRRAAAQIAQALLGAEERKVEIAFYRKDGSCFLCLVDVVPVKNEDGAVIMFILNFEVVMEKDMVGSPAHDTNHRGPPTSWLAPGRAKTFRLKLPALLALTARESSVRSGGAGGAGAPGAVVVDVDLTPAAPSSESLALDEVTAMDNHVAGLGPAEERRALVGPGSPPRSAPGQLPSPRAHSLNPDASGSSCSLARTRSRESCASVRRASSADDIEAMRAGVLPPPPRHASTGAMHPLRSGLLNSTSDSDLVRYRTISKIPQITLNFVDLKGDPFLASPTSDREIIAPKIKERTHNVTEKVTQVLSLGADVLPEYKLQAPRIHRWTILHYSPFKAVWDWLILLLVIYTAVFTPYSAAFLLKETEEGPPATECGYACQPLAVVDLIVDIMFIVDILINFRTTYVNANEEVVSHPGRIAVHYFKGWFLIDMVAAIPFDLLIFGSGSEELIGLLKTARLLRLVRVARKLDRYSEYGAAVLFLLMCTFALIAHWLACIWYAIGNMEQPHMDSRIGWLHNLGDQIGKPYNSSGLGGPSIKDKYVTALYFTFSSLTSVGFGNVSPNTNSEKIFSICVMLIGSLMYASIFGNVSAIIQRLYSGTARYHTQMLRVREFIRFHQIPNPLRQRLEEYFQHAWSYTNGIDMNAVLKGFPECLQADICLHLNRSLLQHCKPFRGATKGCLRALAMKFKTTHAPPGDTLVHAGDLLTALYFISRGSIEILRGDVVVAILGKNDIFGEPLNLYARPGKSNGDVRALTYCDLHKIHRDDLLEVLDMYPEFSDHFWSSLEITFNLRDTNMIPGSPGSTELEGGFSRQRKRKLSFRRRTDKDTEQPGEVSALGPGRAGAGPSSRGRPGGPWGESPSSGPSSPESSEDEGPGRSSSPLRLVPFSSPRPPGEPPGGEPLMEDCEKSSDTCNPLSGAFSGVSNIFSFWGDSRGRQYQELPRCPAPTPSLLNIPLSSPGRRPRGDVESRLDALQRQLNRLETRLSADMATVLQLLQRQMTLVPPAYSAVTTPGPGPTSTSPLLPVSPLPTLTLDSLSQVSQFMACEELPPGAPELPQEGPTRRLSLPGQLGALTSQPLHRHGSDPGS

Row | SMILES | hERG current change (%, negative = inhibition) at 1uM
1 | COc1cc(/C=C/C(=O)OCC(=O)N2CCCC2)ccc1OCC#N | -0.56%
2 | COCCn1c(SCCCC(=O)c2ccc(Br)cc2)nnc1-c1ccncc1 | -38%
3 | CCCOCCOC(=O)c1[nH]c2c(c1C)C(=O)CC(c1cc(OC)ccc1OC)C2 (centres unmarked) | 7.12%
4 | CCN(CC)C(=O)Cn1cc(S(=O)(=O)CC(=O)Nc2ccc3c(c2)OCCO3)c2ccccc21 | 0.677%
5 | CC1CC2=C(C(=O)O1)C(C)Nc1ccccc1N2 (centres unmarked) | 8.27%
6 | Cc1ccc(S(=O)(=O)/N=C(/NC(=S)Nc2cccc(C)c2)c2ccccc2)cc1 | 10.1%
7 | COc1cc(CC(=O)OCC(=O)Nc2ccc(N3CCOCC3)cc2)cc(OC)c1OC | 8.9%
8 | O=C(CSc1ncnc2c1nnn2-c1ccc(F)cc1)NCc1ccco1 | 3%
9 | CC(=O)c1c(O)cc(C)n(Cc2ccccc2)c1=O | 4.37%
10 | O=C(Nc1cccc(S(=O)(=O)N2CCCC2)c1)C1CCCN1C(=O)c1cccs1 (centres unmarked) | 9.22%
11 | COC(=O)C1=C(c2ccc(C(C)=O)cc2)C[C@@H]2CC[C@H]1N2C(=O)NCCO | 6.97%
12 | CC(=NCc1ccco1)c1c(O)n(-c2ccccc2C)c(=O)[nH]c1=O | 22.5%
13 | Oc1ccc(/C=N/N2CCN(c3ccccn3)CC2)cc1 | 10.7%
14 | O=C1NCN(CCO)CN1 | 7.35%
15 | CCOCCCNC(=O)c1ccc2c(c1)ncn2-c1cccc(C)c1 | -3.56%
16 | Nc1ccccc1C(=O)Nc1cccc(C(=O)O)c1 | 12.9%
17 | Cc1cc(/C=C2/C(=O)NC(=O)N(c3ccc(Br)cc3)C2=O)c(C)n1C | 11.2%
18 | COc1cc(S(=O)(=O)Nc2ccccc2C)ccc1NC(=O)c1ccncc1 | 7.66%
19 | CC(C)OC(=O)c1c(NC(=O)CCn2nnc3ccccc32)sc2c1CCCC2 | 18.2%
20 | CC(NC(=O)/C(C#N)=C/c1ccc(N2CCOCC2)cc1)c1ccccc1 (centres unmarked) | -1.86%
21 | COC(=O)CN1C(=O)CC(C)(C)S(=O)c2ccccc21 (centres unmarked) | 2.94%
22 | Cc1nc2ccccn2c1/C(O)=C1\C(=O)C(=O)N(CCN(C)C)C1c1ccco1 (centres unmarked) | 1.98%

Row | SMILES | hERG current change (%, negative = inhibition) at 1uM
23 | CC(Oc1ccccc1)C(=O)N=C1SC2CS(=O)(=O)CC2N1c1ccc(F)cc1 (centres unmarked) | 3.14%
24 | CC1(C(=O)O)CC(C)(C(=O)O)CC(C)(C(=O)O)C1 (centres unmarked) | 16.2%
25 | COc1ccc(OCC(=O)Nc2ccc3c(c2)nc(CCN2CCCCC2)n3C)cc1 | -31.3%
26 | O=C(Nc1ccc(O)cc1)N1CCOCC1 | 8.17%
27 | CN(C(=O)COC(=O)C1=COCCO1)c1c(N)n(Cc2ccccc2)c(=O)[nH]c1=O | 24.7%
28 | Cc1nn(C)c(C)c1CN(C)C(=O)C1CCC(=O)N(C2CCCCCC2)C1 (centres unmarked) | 15.9%
29 | CCOC(=O)Oc1ccc(C(=O)OCCCN(C)C)cc1OC.Cl | -3.8%
30 | CCOC(=O)c1cc(-c2ccc(OC)cc2F)nc2c1c(C)nn2CCC#N | 8.73%
31 | COc1ccc(C(=O)NCC(c2cccs2)N2CCOCC2)cc1OC (centres unmarked) | 6.87%
32 | Cc1cc(C)c(NC(=S)N(C)C)cc1C | 3.51%
33 | COc1ccc(S(=O)(=O)N(C)c2ccc(C(=O)N3CCN(c4ccccc4)CC3)cc2)cc1OC | 0.78%
34 | COc1ccc(NC(=O)CSc2ccc(-c3ccco3)nn2)c(OC)c1 | 14.6%
35 | CCN(c1ccccc1)S(=O)(=O)c1ccc(OCC(=O)N2CCCC2)cc1 | 11.5%
36 | CCn1c(SCC(=O)NC2CC2)nnc1-c1ccc(C)cc1 | 7.5%
37 | CC(C)c1ccc(/C=C/C(=O)Nc2nncs2)cc1 | 10.6%
38 | OCC1(Cc2ccccc2)CCCN(Cc2ccc(-c3ccco3)cc2)C1 (centres unmarked) | 1.72%
39 | COc1cccc(Cn2cnc3c(N)c(C)c(C)cc32)c1 | 3.4%
40 | COc1ccc(NC(=O)CN2C(=O)/C(=C3\SC(=S)N(CCC(=O)O)C3=O)c3ccccc32)cc1 | 10.9%
41 | Cc1oc2c(c(C)cc3oc(=O)c(CC(=O)N[C@@H](C)C(=O)O)c(C)c32)c1C | 13.7%
42 | CC(=O)N1c2ccc(S(=O)(=O)N(C)CC(=O)NCc3ccc(C)cc3)cc2CC1C (centres unmarked) | 13%
43 | O=C(CSc1nnnn1-c1ccc(F)cc1)NNC(=O)c1ccco1 | 0.5%
44 | COc1ccc(F)cc1S(=O)(=O)N1CCC2(CC1)OCCN2S(=O)(=O)c1cccs1 | -1.29%
